#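 Values below derive from 48-hour exposures of cells grown in 96-well plates, with endpoints linearly interpolated between the two concentrations bracketing the appropriate inhibition level. GI50 is the concentration that inhibits growth by half. TGI is the concentration that stops growth completely.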
# System: NCI-H322M lung
# Experiment: NCI tumour cell line growth inhibition, 48 h
Compound,GI50 [µM],TGI [µM]
Cc1ccc(-c2nnc(SCc3ccc(O)c4ncccc34)n2-c2ccccc2)cc1,0.376,> 100
COc1ccc(/C=N\NC(=O)c2ccc3nc(-c4ccc(Br)cc4)[nH]c3c2)cc1,2.99,10.5
Brc1ccc2[nH]cc(-c3nn4cc(-c5nccs5)nc4s3)c2c1,8.17,> 74
